Test results published in the supplement of paper PMC3334620.
Whole data set: some 33,000 sequences, median “E-score (-0.5 to 0.5)” near -0.017, cut for the highest 2% near 0.3. The list shows a part of the results.

Each sequence was assayed against T1, Sut1 (UniProt P53032) (assay: PBM E-score (8-mer binding enrichment) (E-score (-0.5 to 0.5)); higher = stronger / more preferred TF binding; most listed sequences are background and not binding sites). Details: protein concentration: 200 nM; construct: GST-full length.
T1 sequence: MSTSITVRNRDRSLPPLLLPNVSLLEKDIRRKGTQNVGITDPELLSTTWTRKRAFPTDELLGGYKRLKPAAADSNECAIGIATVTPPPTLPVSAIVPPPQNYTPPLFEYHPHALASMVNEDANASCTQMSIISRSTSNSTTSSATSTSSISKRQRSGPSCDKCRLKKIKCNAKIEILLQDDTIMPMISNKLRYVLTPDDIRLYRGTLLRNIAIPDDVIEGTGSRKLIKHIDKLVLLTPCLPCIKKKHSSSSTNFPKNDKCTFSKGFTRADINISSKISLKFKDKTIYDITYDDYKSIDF
Outline: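 Masliner-normalised scans of fluorescent anti-GST signal were the basis for scoring. That signal came from GST-tagged yeast transcription factors applied at about 100-200 nM to double-stranded universal all-10-mer Agilent arrays on fresh or once-stripped slides. Each ungapped eight-base word, pooled with its reverse complement, received an E-score from the Universal PBM Analysis Suite.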
With CGCCACTC the “PBM E-score” value was -0.0913.
In the case of ATACTGCA, the “PBM E-score” value is reported as 0.126.
In the case of CGACTATA, the “PBM E-score” value is reported as -0.013.
For ACACACGA, the “PBM E-score” value was 0.0316.
For AGCCCTAA, the “PBM E-score” value was 0.0488.
In the case of CTATCCAC, the “PBM E-score” value is reported as 0.0213.
In the case of AGCCCATG, the “PBM E-score” value is reported as -0.2.
For AGTCTCGG, the “PBM E-score” value was 0.109.
ATGGCATA was tested, and the “PBM E-score” value was 0.0329.
CTCTTAAA was tested, and the “PBM E-score” value was 0.302.
With AGATCCCC the “PBM E-score” value was -0.125.
With CCTAATCA the “PBM E-score” value was 0.165.
With AGGATAGA the “PBM E-score” value was 0.0417.
CTTATATC was tested, and the “PBM E-score” value was 0.222.
In the case of ATTACTTC, the “PBM E-score” value is reported as 0.102.
With CCTTTGGA the “PBM E-score” value was -0.126.
In the case of ATGTCCCC, the “PBM E-score” value is reported as -0.163.
AGTCCCCC was tested, and the “PBM E-score” value was -0.276.
In the case of AGAAGAAT, the “PBM E-score” value is reported as 0.139.
For CACTCACC, the “PBM E-score” value was -0.0683.
With AAGGCTCT the “PBM E-score” value was -0.132.
With AGATACAG the “PBM E-score” value was 0.08.
With ACTGGCAG the “PBM E-score” value was -0.12.
In the case of GATCTCGA, the “PBM E-score” value is reported as -0.0163.
With CGACCTTC the “PBM E-score” value was 0.0798.
AGGCCTTC was tested, and the “PBM E-score” value was 0.0672.
With ACCTGAGT the “PBM E-score” value was -0.0732.
GTCGCATA was tested, and the “PBM E-score” value was 0.0981.
For ATGGGTCG, the “PBM E-score” value was -0.0319.
GACATGCA was tested, and the “PBM E-score” value was -0.0916.
CGACAGCA was tested, and the “PBM E-score” value was -0.0542.
For GCATGTGA, the “PBM E-score” value was -0.181.
For CTTCCAGA, the “PBM E-score” value was -0.274.
For AATTCCAA, the “PBM E-score” value was 0.21.
In the case of CGGCGTAA, the “PBM E-score” value is reported as 0.166.
For CTCATACA, the “PBM E-score” value was 0.138.
With ATCGGCCC the “PBM E-score” value was -0.258.
CCTCACTA was tested, and the “PBM E-score” value was -0.0975.
In the case of AAACAGAA, the “PBM E-score” value is reported as 0.143.
With TATTAGGA the “PBM E-score” value was 0.0533.
In the case of CCTTTTGC, the “PBM E-score” value is reported as -0.0963.
For ACTTTAAG, the “PBM E-score” value was 0.195.
With GCATCCGC the “PBM E-score” value was -0.0308.
With ACGCCTGC the “PBM E-score” value was -0.307.
In the case of GCTCCTAA, the “PBM E-score” value is reported as -0.258.
In the case of AGGATCCC, the “PBM E-score” value is reported as -0.0607.
With GTCGGAAC the “PBM E-score” value was 0.134.
With GCTCAGAA the “PBM E-score” value was 0.0338.
GCAACTGA was tested, and the “PBM E-score” value was -0.0671.
In the case of GGTCAAAC, the “PBM E-score” value is reported as 0.00911.
For CCCTCGCA, the “PBM E-score” value was -0.219.
With GGGATAAA the “PBM E-score” value was 0.141.
For ACACGCAG, the “PBM E-score” value was -0.151.
ATAGTGCC was tested, and the “PBM E-score” value was -0.165.
With GGAGATAA the “PBM E-score” value was 0.197.
With CCCTTGTC the “PBM E-score” value was -0.172.
In the case of ACCTTACA, the “PBM E-score” value is reported as 0.0525.
In the case of CCGCACGC, the “PBM E-score” value is reported as -0.237.
In the case of TAAGGCTA, the “PBM E-score” value is reported as -0.0499.
In the case of AAGAGATT, the “PBM E-score” value is reported as 0.21.
CCTTTAAA was tested, and the “PBM E-score” value was -0.0727.
For ACGTAAAA, the “PBM E-score” value was 0.109.
GCGACGAA was tested, and the “PBM E-score” value was 0.0149.
AAGCAATG was tested, and the “PBM E-score” value was 0.104.
GGTTACTA was tested, and the “PBM E-score” value was 0.146.
In the case of AACACATC, the “PBM E-score” value is reported as 0.119.
With AGAGCGCT the “PBM E-score” value was -0.136.
With ATCCGACG the “PBM E-score” value was 0.0371.
AACTGACG was tested, and the “PBM E-score” value was -0.126.
In the case of CCGTTCGC, the “PBM E-score” value is reported as -0.0248.
With AAGCAACC the “PBM E-score” value was -0.0389.
In the case of ACACCCTA, the “PBM E-score” value is reported as -0.127.
In the case of CACATAAC, the “PBM E-score” value is reported as -0.197.
With CCGCAGCC the “PBM E-score” value was -0.0543.
For AGTTGAAG, the “PBM E-score” value was 0.0557.
For ATCGGAAT, the “PBM E-score” value was 0.352.
In the case of GCCTGTCA, the “PBM E-score” value is reported as -0.173.
With ACATAAGG the “PBM E-score” value was 0.131.
For CCTCTGGA, the “PBM E-score” value was -0.148.
GGACGGTA was tested, and the “PBM E-score” value was -0.0407.
AGGACGAT was tested, and the “PBM E-score” value was -0.112.
In the case of CGCGCATA, the “PBM E-score” value is reported as -0.269.
For CACGCGAC, the “PBM E-score” value was -0.138.
For AGGAACCG, the “PBM E-score” value was -0.038.
In the case of CTTATTAA, the “PBM E-score” value is reported as 0.159.
For CAAAGTTC, the “PBM E-score” value was 0.00795.
For AGTATTCG, the “PBM E-score” value was 0.0764.
CAGGGCAG was tested, and the “PBM E-score” value was -0.183.
With CATTGTGC the “PBM E-score” value was 0.0252.
For CGGCGGCC, the “PBM E-score” value was -0.061.
In the case of TACTAACA, the “PBM E-score” value is reported as 0.131.
For GCCCATCC, the “PBM E-score” value was -0.229.
With AATCGGCT the “PBM E-score” value was 0.11.
GAACCGGC was tested, and the “PBM E-score” value was -0.0738.
With CCTTATCA the “PBM E-score” value was 0.0523.
With CCTGTGAG the “PBM E-score” value was -0.117.
In the case of ACACCGCG, the “PBM E-score” value is reported as -0.179.
In the case of ACATTCTC, the “PBM E-score” value is reported as -0.0453.
In the case of ACCCAGAC, the “PBM E-score” value is reported as -0.0554.
For CAGGAGAA, the “PBM E-score” value was 0.0231.
For AATCCGTG, the “PBM E-score” value was -0.153.
In the case of CGTGCGGA, the “PBM E-score” value is reported as 0.0121.
With CTAGGTTC the “PBM E-score” value was 0.0866.
With CACAGATG the “PBM E-score” value was -0.127.
GGTACACA was tested, and the “PBM E-score” value was -0.139.
In the case of AGTAGACT, the “PBM E-score” value is reported as 0.0983.
With GACGTTCC the “PBM E-score” value was -0.11.
In the case of ATAGGTTA, the “PBM E-score” value is reported as 0.0903.
GAATACTA was tested, and the “PBM E-score” value was 0.127.
GACGAGGC was tested, and the “PBM E-score” value was -0.0913.
With TCTTCCAA the “PBM E-score” value was 0.177.
TAGCCACA was tested, and the “PBM E-score” value was -0.0649.
In the case of AACACCTT, the “PBM E-score” value is reported as 0.0209.
In the case of AAACATCG, the “PBM E-score” value is reported as -0.171.
With CAGCATAA the “PBM E-score” value was 0.19.
With CATAAAAA the “PBM E-score” value was 0.161.
For CCTAAATC, the “PBM E-score” value was 0.108.
GGATTCAA was tested, and the “PBM E-score” value was -0.0371.
In the case of CGGTCCTA, the “PBM E-score” value is reported as -0.124.
For TGGGGAAA, the “PBM E-score” value was 0.0593.
For ACATTGCT, the “PBM E-score” value was 0.0613.
In the case of CTTGTTGA, the “PBM E-score” value is reported as 0.00705.
In the case of AATTCTAA, the “PBM E-score” value is reported as 0.263.
With GCGTTCCA the “PBM E-score” value was -0.215.
ATTTGCAG was tested, and the “PBM E-score” value was 0.0722.
CCGCCCAA was tested, and the “PBM E-score” value was -0.272.
For AGGCGAAG, the “PBM E-score” value was -0.04.
With CAGACGCC the “PBM E-score” value was -0.119.
For GTACGTCA, the “PBM E-score” value was -0.0804.
AGCGTGAT was tested, and the “PBM E-score” value was 0.0704.
With GAGTTCTA the “PBM E-score” value was 0.135.
For ATGATTCG, the “PBM E-score” value was 0.0864.
In the case of CTACCTTA, the “PBM E-score” value is reported as 0.0292.
TACAGGAA was tested, and the “PBM E-score” value was 0.128.
In the case of CCTTTCAC, the “PBM E-score” value is reported as -0.0877.
ATTGGCCG was tested, and the “PBM E-score” value was -0.182.
In the case of CCTTGGCC, the “PBM E-score” value is reported as -0.293.
With CAGAGGAG the “PBM E-score” value was -0.127.
In the case of CAACGCTC, the “PBM E-score” value is reported as -0.146.
With GCGTTTCC the “PBM E-score” value was 0.0751.
AGTCGTAG was tested, and the “PBM E-score” value was -0.00315.
With GCATATTA the “PBM E-score” value was 0.11.
For AGTACTTC, the “PBM E-score” value was 0.137.
GCCCTGTA was tested, and the “PBM E-score” value was -0.0292.
For GTTTTCTA, the “PBM E-score” value was 0.212.
With ATAATCCG the “PBM E-score” value was 0.19.
For GCAAAAAA, the “PBM E-score” value was 0.0743.
In the case of ATTCCGGA, the “PBM E-score” value is reported as 0.42.
GAAAAAGA was tested, and the “PBM E-score” value was 0.188.
GCGTTACA was tested, and the “PBM E-score” value was -0.113.
For GCAGCAGA, the “PBM E-score” value was -0.175.
For ATCTGTGG, the “PBM E-score” value was -0.162.
In the case of GCGCCACC, the “PBM E-score” value is reported as -0.338.
In the case of GCGCGGGA, the “PBM E-score” value is reported as -0.22.
In the case of ATTTCATC, the “PBM E-score” value is reported as 0.138.
TATAATGA was tested, and the “PBM E-score” value was 0.197.
For CAGGAATC, the “PBM E-score” value was -0.0729.
For CGTATCCC, the “PBM E-score” value was -0.242.
CGCACCAG was tested, and the “PBM E-score” value was -0.205.
In the case of ATTAAGTG, the “PBM E-score” value is reported as 0.161.
GGTTCAAA was tested, and the “PBM E-score” value was 0.124.
AGAACCAG was tested, and the “PBM E-score” value was 0.0981.
In the case of GCGACCAC, the “PBM E-score” value is reported as -0.141.
In the case of AGAACCGA, the “PBM E-score” value is reported as 0.15.
CACATCTA was tested, and the “PBM E-score” value was 0.128.
With GTACCCAA the “PBM E-score” value was -0.162.
For CTGCCCTC, the “PBM E-score” value was -0.294.
With CAGAACCC the “PBM E-score” value was -0.152.
AGTATACC was tested, and the “PBM E-score” value was 0.118.
GACTAGTC was tested, and the “PBM E-score” value was 0.0564.
AGACCGGC was tested, and the “PBM E-score” value was -0.228.
AATGTCCC was tested, and the “PBM E-score” value was -0.149.
